# Test results taken from the supplement of paper PMC3334620.
# In all, about 33,000 sequences were measured (“E-score (-0.5 to 0.5)”: median about -0.054, highest 2% from about 0.35 on). The list shows a part of the results.
# Target: T1, Stb5 (UniProt P38699)
# T1 sequence: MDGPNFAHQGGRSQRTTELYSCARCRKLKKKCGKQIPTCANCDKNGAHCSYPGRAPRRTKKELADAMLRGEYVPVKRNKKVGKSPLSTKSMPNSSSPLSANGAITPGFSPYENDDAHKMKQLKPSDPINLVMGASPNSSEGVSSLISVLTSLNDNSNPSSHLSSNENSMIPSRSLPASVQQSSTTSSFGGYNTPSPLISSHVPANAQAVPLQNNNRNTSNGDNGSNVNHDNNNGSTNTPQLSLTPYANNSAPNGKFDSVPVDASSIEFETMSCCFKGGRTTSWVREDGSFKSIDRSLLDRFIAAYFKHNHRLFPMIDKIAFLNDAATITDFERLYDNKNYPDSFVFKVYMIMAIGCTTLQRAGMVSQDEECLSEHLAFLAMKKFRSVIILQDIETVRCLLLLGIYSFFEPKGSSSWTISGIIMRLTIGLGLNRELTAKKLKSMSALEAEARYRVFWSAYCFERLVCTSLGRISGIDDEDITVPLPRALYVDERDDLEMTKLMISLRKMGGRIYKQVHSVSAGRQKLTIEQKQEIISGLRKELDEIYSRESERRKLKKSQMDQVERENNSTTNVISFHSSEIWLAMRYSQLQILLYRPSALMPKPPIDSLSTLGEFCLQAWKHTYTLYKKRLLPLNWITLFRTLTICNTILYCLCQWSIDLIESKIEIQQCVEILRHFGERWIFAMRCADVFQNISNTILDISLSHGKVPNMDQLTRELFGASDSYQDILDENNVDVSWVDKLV
# Experiment: PBM E-score (8-mer binding enrichment) (E-score (-0.5 to 0.5)); higher = stronger / more preferred TF binding; most listed sequences are background and not binding sites
# Conditions: protein concentration: 200 nM; construct: GST-full length
# Method in brief: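 PURExpress in vitro transcription/translation supplied GST-tagged yeast transcription factors, either full-length or DNA-binding domain. Applied at about 100-200 nM to universal all-10-mer Agilent arrays double-stranded by primer extension, the bound protein was detected with fluorescent anti-GST. E-scores, modified Wilcoxon-Mann-Whitney statistics, were given by the Universal PBM Analysis Suite to ungapped eight-base words pooled with their reverse complements after masliner normalisation.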
row,Sequence,PBM E-score
1,AACCGCGT,0.186
2,CTAGGAGA,-0.2
3,CACGTTCG,-0.0575
4,ATACAAAC,0.0434
5,ATAGGCCG,0.219
6,CACAGGTC,-0.107
7,GTACTTAA,-0.00623
8,CCCCTAAG,-0.23
9,CGTTGCCC,0.0438
10,GAATTGGA,-0.02
11,CATGAACC,-0.0866
12,CACGTAGC,-0.0959
13,TGACTCCA,-0.325
14,TTAATAAA,0.077
15,ATTTTCGA,-0.0569
16,GATGTCCC,0.0843
17,GCCTTAGC,0.0356
18,GTGGTCTA,-0.247
19,CCTAACCC,0.0781
20,GTCAGGAC,-0.213
21,AACTAGAA,-0.116
22,ACGATGCT,-0.042

row,Sequence,PBM E-score
1,ACACCGTC,0.424
2,AGCGCCCG,0.198
3,CTAGTAGA,0.1
4,CTTGGGAA,-0.178
5,CACGGCCC,0.112
6,AATAGAAC,0.00291
7,GCGTTGAA,-0.0254
8,CCGCGCCA,0.228
9,CAGTTGAC,-0.0313
10,AATCGCTA,-0.189
11,CCTAAAGC,-0.0714
12,TGAACTCA,-0.189
13,GCCCTGAA,-0.00623
14,GGGAGTAC,0.115
15,ATCCATAC,-0.0934
16,ACCCAACG,0.0646
17,ATGAAATA,-0.0118
18,GGGTAGAA,0.00969
19,ATATGGAC,-0.149
20,CCCATTCC,-0.156
21,GCAGGCCC,-0.107
22,CTTCAACC,-0.0533

row,Sequence,PBM E-score
1,AAGATTAG,-0.0223
2,AAACTCCC,0.104
3,CCCTGTTC,-0.164
4,TGGCAGAA,-0.0873
5,GATCCCCA,0.00367
6,CGAATCTA,-0.0142
7,CAACTGGG,-0.174
8,GAGCACAC,-0.311
9,ATCTCGCG,-0.0952
10,GTTGCATA,-0.0825
11,CTTCCAAG,-0.207
12,AAGCCATG,-0.148
13,ATGTTAAC,-0.0161
14,AGTCTCAG,-0.261
15,ATCTACTA,-0.126
16,ACTGTTTA,-0.204
17,AGCAGCTA,-0.218
18,GACACCGA,0.442
19,AACATAAG,0.0593
20,AACCCACC,0.138
21,CACTCAGG,-0.126
22,GATACTTA,-0.0998

row,Sequence,PBM E-score
1,CCAATCGA,-0.0932
2,ACTTTCTC,-0.046
3,GTCGATCA,-0.181
4,GGTTTCAA,0.218
5,GCCCGGTA,0.304
6,ATTCGTTA,-0.11
7,AATCTTGA,-0.184
8,ATTTTCCG,0.18
9,CGTAAATA,0.0795
10,ATTGAGCG,0.0357
11,AATGCATG,-0.156
12,CGGACTGC,0.217
13,CAGTTAAC,0.164
14,GCTGCCCC,-0.126
15,ACCCATAA,0.159
16,AGGCATGG,0.0415
17,AGATCGAG,-0.156
18,GCCCCCTA,-0.296
19,AGTGCCTG,-0.17
20,GGAAGTCA,-0.0172
21,AGCATGCC,-0.147
22,CACGCTAA,-0.0171

row,Sequence,PBM E-score
1,CGCCCGCA,0.152
2,AATGCTTA,-0.222
3,AAACGAGA,0.0382
4,GGGGTCAA,0.276
5,ACGGAGCA,0.112
6,ACTTTACT,-0.0977
7,CAACTGGC,-0.0884
8,CCTCCACC,-0.0408
9,ACGATCAA,-0.224
10,GCTGACCC,-0.0109
11,GAGATCGA,-0.0563
12,GCGGCGAA,0.325
13,GGGCTTAA,0.391
14,TAGTAGAA,0.0677
15,ATTGTAGA,-0.205
16,ACTTGGTA,-0.121
17,ATACAGTG,-0.279
18,GGGGTACC,0.0195
19,CTGGGGAC,-0.266
20,AGTTATTC,-0.0473
21,AAAGACTG,-0.29
22,GTCGTGCA,-0.103
